Sequences and labels used below:
B1: CPEB3 Ribozyme (parent)
chain: UAACAGGGGGCCACAGCAGAAGCGUUCACGUCGCAGCCCCUGUCAGAUUCUGGUGAAUCUGCGAAUUCUGCUGUAUAUCUC

Experimental findings from the RNAGym collection of RNA variant scans (doi:10.1093/nar/gkz1192) are described below.

The source gives no read counts; variants with many changes may rest on few reads.

Variants of B1 are the subject of the data set. Briefly: self-cleavage, relative activity (ratio to wild type); higher = more cleavage; in vitro, sequencing. Summed up: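 Relative activity compares each variant's cleaved/total read fraction with that of the unmutated ribozyme. To get these fractions, barcoded CPEB3 ribozyme libraries from rounds of error-prone PCR were transcribed with T7 RNA polymerase for 5 hours at 37°C and then given 15 min of DNase I treatment before EDTA was added. The RNAs were reverse transcribed with template switching and sequenced on Illumina, and DNA sequencing linked barcodes to variants. A minimum of 5 reads applied, and three batches were averaged.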
Take A15U U54G U58C U74C: the self-cleavage was determined as 0.56.
The value for G16A U26C U49C U72C was 0.18; that for A15U U25C U54C U66C U80A was 0.07.
The value for A15U U41C A57G U72G U74C was 0.51; that for A15U U26G A35C U43C A45G G73A U80C was 0.53.
The value for A15U U26C A28G A45C A47G U60C U69C was 0.11.
As to G16A C29A U51A U60C U67C U74C, the self-cleavage came to 0.14.
The result for A15U U43C G63U reads 0.65; that for G16A G24A G61A U69C, 0.11.
For A15U U31A C40G A45U, the self-cleavage turned out to be 0.09.
For A15U U26C A35G, the self-cleavage was 1.03.
The value for A15U U43C G53A U54C U69C was 0.17.
On to A15U U54A C62U U66C U72A, for which the self-cleavage was determined as 0.1.
The result for A15U U26A C27A C68A U72A U78C reads 0.1; that for A15U U26C A28G A45U G46A A56G, 0.07; that for G16A U25A G33A U60C, 0.13.
The value for A15U U43A U54A A77U was 0.96.
Turning to A15U U26C C32U A35C, the self-cleavage is 0.05.
The result for A15U U31C U51C reads 0.63; that for A15U U72G U76C, 0.89; that for A15U U51G A64G C68A U72A, 0.17.
A15U U54C U72C U74C: the self-cleavage was 1.09.
On to A15U U31C A56U, for which the self-cleavage worked out at 0.12.
In the case of A15U U31C A65G, the self-cleavage was 0.16.
The result for G16U A56U U72C A77G reads 0.17.
The result for G16U G24U U25C U31A G70U reads 0.07; that for A15U U60A U67C U74C A75U A77G, 0.06; that for A15U U74C U76C, 0.26.
The value for A15U U67A U72C was 0.25; that for A15U U48C U54A C68A was 0.18; that for A15U U41A U43C was 0.07.
Turning to A15U U41A U43A, the self-cleavage is 0.19.
As to G16C U49C A64G, the self-cleavage amounted to 0.13.
The result for G16A C27A U43C reads 0.17.
The value for G16A C39U U41A C71G was 0.08; that for G16C U26C G61U was 0.12; that for G16U A21U U26A U49A A65G was 0.21.
As for G16C A21G U51C U72A, the self-cleavage was 0.06.
The result for A15U U26C A45U G53A U60C reads 0.09.
The value for A15U U26G U31A C68A G70A was 0.03; that for A15U U31C A35G U41A U54G was 0.18.
The result for G16A A18U U60C reads 0.17; that for G16C U25A A45U U54A U67A, 0.08; that for A15U U25C U78C, 0.16.
A15U U48C U60C: the self-cleavage was found to be 0.11.
The result for G16U A21G G24A C38A U60C reads 0.23; that for G16C U31C U43G G53A A56U U74A, 0.05.
The value for A15U U67C U72A U76A was 0.17.
The value for A15U U51C U78C was 0.58.
Consider A15U U26A U54C U60A A65G U78C U80C, for which the self-cleavage worked out at 0.28.
The result for G16U G19U U51C U60C A64G reads 0.13.
For G16U A35G U41A U58C, the self-cleavage was determined as 0.05.
For G16U G52A U67A, the self-cleavage is 0.14.
The result for G16C C27U U31C A35G U48C U80C reads 0.24; that for G16A U25C U41G U54C U76C, 0.03.
The value for G16U C40A A75U was 0.06; that for A15U U25C U26C U60A G70A A77G was 0.07.
In the case of G16A U60C U66A, the self-cleavage is 0.13.
The value for A15U U25G U51C A77G U78C was 0.09; that for G16C U31A A56U was 0.19; that for G16A A21G U41G U54A was 0.09.
The value for G16A U31G U43C U60C was 0.07; that for G16U A20G A28U U31C U66C U80C was 0.05; that for G16A U51C U78C was 0.34.
As for G16A G36C G63A U67C U69C C79A, the self-cleavage turned out to be 0.05.
Turning to G16A A18U U51C U54C, the self-cleavage came out at 0.27.
The result for G16A U26A U69A reads 0.09; that for G16U C39G U67C, 0.08; that for G16A U25C G33A U43C, 0.17.
Turning to A15U U31A U67C, the self-cleavage is 0.12.
In the case of A15U U58C U60C, the self-cleavage amounted to 0.12.
The value for G16U A21G U51C G55A G63U U72A was 0.12.
The value for A15U U41A U72G U74C was 0.05.
The value for A15U U51C U54A was 0.68.
With G16U A21U U26C C32U A64G, the self-cleavage was 0.05.
The value for G16A U26C A28C A64G U74C was 0.06.
The result for G16A U31A A65G reads 0.13.
The result for G16U A18U U41A A47G reads 0.02; that for A15U U26G A28G G30A A65U, 0.08; that for A15U U48A C71U U80A, 0.05.
As for G16C A45U A57G U72C U74A, the self-cleavage is 0.07.
The result for G16A A35G U80C reads 0.92; that for G16A A57G U80C, 0.58; that for A15U U41C A45G A57G A64G, 0.3.
